# Test results as given in paper PMC4336329 (PLoS ONE, 2015).
# Out of some 310,000 compounds screened, about 14,000 (4.5%) showed an effect of 50% or more. The effect is printed as a negative number. The list shows a part of the results.
# Target: human ether-à-go-go-related gene (hERG) potassium channel (human, UniProt Q12809)
# Assay: primary screen, population patch clamp on CHO cells stably expressing hERG
# 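Also: peak tail current of the secondary pulse compared with the same well before compound.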
# human ether-à-go-go-related gene (hERG) potassium channel, sequence (Q12809 whole entry, looked up): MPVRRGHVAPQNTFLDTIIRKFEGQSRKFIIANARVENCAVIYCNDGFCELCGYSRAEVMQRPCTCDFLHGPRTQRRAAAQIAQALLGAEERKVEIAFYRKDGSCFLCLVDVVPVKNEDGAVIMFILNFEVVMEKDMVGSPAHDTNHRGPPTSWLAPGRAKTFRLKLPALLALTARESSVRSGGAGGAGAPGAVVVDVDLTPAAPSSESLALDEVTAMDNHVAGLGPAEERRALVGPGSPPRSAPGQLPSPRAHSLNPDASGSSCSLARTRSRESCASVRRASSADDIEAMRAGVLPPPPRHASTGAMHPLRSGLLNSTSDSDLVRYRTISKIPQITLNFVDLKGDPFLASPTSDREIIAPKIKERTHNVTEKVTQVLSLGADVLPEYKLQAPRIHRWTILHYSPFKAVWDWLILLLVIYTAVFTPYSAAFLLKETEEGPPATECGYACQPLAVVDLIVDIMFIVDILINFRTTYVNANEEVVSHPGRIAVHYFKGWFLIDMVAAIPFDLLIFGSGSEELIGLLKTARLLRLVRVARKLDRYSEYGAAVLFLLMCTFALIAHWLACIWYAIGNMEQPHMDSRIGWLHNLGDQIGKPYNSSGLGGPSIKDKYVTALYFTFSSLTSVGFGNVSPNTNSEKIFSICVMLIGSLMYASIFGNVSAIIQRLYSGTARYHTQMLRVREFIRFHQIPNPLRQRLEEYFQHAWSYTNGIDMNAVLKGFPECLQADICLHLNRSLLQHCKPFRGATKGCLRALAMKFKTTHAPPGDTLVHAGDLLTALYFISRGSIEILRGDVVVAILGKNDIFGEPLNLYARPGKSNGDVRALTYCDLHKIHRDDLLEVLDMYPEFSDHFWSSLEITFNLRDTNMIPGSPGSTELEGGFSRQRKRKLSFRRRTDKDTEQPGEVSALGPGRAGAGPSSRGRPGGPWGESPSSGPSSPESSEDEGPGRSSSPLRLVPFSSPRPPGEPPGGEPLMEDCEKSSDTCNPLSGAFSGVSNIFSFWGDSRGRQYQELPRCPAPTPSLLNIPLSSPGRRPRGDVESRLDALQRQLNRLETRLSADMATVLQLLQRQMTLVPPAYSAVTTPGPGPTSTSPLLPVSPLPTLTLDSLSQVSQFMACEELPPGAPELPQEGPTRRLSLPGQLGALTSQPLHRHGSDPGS
row,Structure (SMILES),"hERG current change (%, negative = inhibition) at 10uM [%]"
1,Cc1cc(=O)[nH]c(SCC(=O)NC2CCCCC2)n1,8.81
2,CC1CCN(C(C(=O)Nc2ccc(C(C)C)cc2)c2ccc3c(c2)OCO3)CC1 (stereo not drawn),-29.5
3,COc1ccc(CNC(=S)Nc2cc(OC)ccc2OC)cc1,-14
4,COc1ccc2c(C)cc(Sc3nnnn3-c3ccccc3)nc2c1,-16.3
5,COCCNCC(=O)NC12CC3CC(CC(C3)C1)C2,8.91
6,COc1ccc(-n2nc(C(=O)NCC(=O)Nc3cccc(C)n3)c3ccccc3c2=O)cc1,13.2
7,Nc1c(C(=O)NCCC2=CCCCC2)sc2ccc(S(=O)(=O)N3CCCCC3)cc12,-5.44
8,O=C(Nc1cccc(Cl)c1)Nc1nnc(CSCCOc2ccc(Cl)cc2)s1,8.06
9,Cc1ccc(N(C(=O)c2csnn2)C(C(=O)NC2CCCCC2)c2ccccn2)cc1 (stereo not drawn),18.7
10,CCN(CC(=O)Nc1ccccc1OC)C(=O)c1ccc2[nH]c3c(c2c1)CC(C)CC3 (stereo not drawn),-1.35
11,CC(C)C(NC(=O)c1ccc(Cl)cc1)C(=O)O (stereo not drawn),5.78
12,COc1ccc(N/C=C2\CCOC2=O)cc1,-2.84
13,Cc1cccc(N2CCN(C3=NC(=O)C(Cc4ccccc4)S3)CC2)c1 (stereo not drawn),-30.7
14,O=C(COC(=O)CC(c1ccccc1)c1ccccc1)NCc1ccccc1,7.51
15,CCC(c1nnnn1Cc1ccco1)N(Cc1cc2cc(C)cc(C)c2[nH]c1=O)CC1CCCO1 (stereo not drawn),-13
16,Cc1ccc(C2=NCCn3nc4cc(C(F)(F)F)ccc4c32)cc1,4.21
17,CCCN1CCC(=O)N([C@H](CSc2ccccc2)c2ccccc2)CC1,-77.2
18,O=C(O)c1ccccc1-c1ccccc1C(=O)Nc1ccc(OC(F)(F)F)cc1,14.1
19,CCCCN(C)CCNC(=O)c1ccc(Cn2c(=S)[nH]c3ccc(Br)cc3c2=O)cc1,-41
20,O=C(O)C1(P(=O)(c2ccccc2)c2ccccc2)CCCC1,-17
21,Cc1ccc(S(=O)(=O)N2CCC(C(=O)Nc3ncccc3O)CC2)cc1,-27.2

row,Structure (SMILES),"hERG current change (%, negative = inhibition) at 10uM [%]"
1,CC(C)(O)C#Cc1ccc(C(=O)N2CCN(c3ccccc3)CC2)cc1,11.3
2,COc1ccc(N(C(=O)c2snc(C(N)=O)c2N)C(C(=O)NC2CCCC2)c2ccco2)cc1 (stereo not drawn),-1.76
3,CCOC(=O)CNC(=O)c1ccc(C)cc1,4.88
4,O=S(=O)(Nc1nc2ccccc2nc1NCCN1CCOCC1)c1cccc(Cl)c1,3.15
5,S=C(Cc1ccc(-c2ccccc2)cc1)N1CCOCC1,-11.9
6,COc1cc(OC)cc(C(=O)N[C@H](C(=O)Nc2nc(-c3ccc(F)c(F)c3)cs2)C(C)C)c1,8.68
7,O=C(Nc1nnc(C2=COCCO2)o1)c1ccc(Br)cc1,-0.63
8,Cc1ccc2[nH]c(C(=O)O)c(NC(=O)CN3CCN(c4cccc(C)c4C)CC3)c2c1.Cl,13.1
9,CN(C(=O)/C=C/c1cnc2ccccc2c1)C1CCCCC1,-13.3
10,CC(c1ccccc1)N1C(=O)NC(NC(=O)c2cccnc2)(C(F)(F)F)C1=O (stereo not drawn),-2.4
11,COCCN1Cc2cccc(C(=O)N3CCN(c4cc(C)ccc4C)CC3)c2C1=O,-16.5
12,CC(=O)c1ccc(NC(=O)c2ccc(NC(=O)CCS(=O)(=O)c3cccs3)cc2)cc1,-0.819
13,O=C(N/N=C/c1cccc(OC(=O)N2CCOCC2)c1)c1cccs1,-0.341
14,CC(C)c1ccc(N(CC(=O)O)S(=O)(=O)c2cccnc2)cc1,0.506
15,COC(=O)C1(c2ccccc2)NC(c2ccc(O)cc2)C2C(=O)N(c3ccc4c(c3)OCO4)C(=O)C21 (stereo not drawn),-39.4
16,CC(C)OC(=O)c1nnc(Cc2ccc(Cl)cc2)o1,7.23
17,Cc1nc2nc(-c3ccco3)[nH]n2c(=O)c1Cc1ccccc1,-20.5
18,CN(CC(=O)Nc1ccc(Cl)c(Cl)c1)C(=O)CN1C(=O)NC2(CCCC2)C1=O,-4.3
19,O=c1[nH]c(CN2CCOCC2)nc2ccccc12,0.449
20,CCNC(=O)COc1ccc(S(=O)(=O)Nc2ccccc2)cc1,-1.85
21,COc1ccc(/C=C/C(=O)NC2CCCCCCC2)cc1S(=O)(=O)N1CCOCC1,-6.43
